In the supplement of paper PMC4967469:

What was measured:
Assay in all cases: Viability of human cancer cell lines after 72 h of drug (GDSC screen)
[1] = compound: CNC(=O)c1ccc(Nc2cc(Nc3ccccc3S(=O)(=O)C(C)C)c3cc[nH]c3n2)nc1 [HG-5-113-01]; settings: top dose 10 µM; top dose inferred
Method: (§1)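 Human cancer cell lines in 384-well plates, medium with 10% serum, drug for 72 h over a 256-fold dose range (nine 2-fold or five 4-fold steps up to the top dose). Adherent lines were fixed and stained with the nucleic acid dye Syto60, suspension lines read with resazurin; signal relative to control wells, capped at 0 and 100%. One two-parameter sigmoid per drug and line, fitted in a mixed model over all curves with the slope shared within a line.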

[2] = compound: COc1cc(-c2nn([C@H]3CC[C@H](N4CCN(C(C)=O)CC4)CC3)c3ncnc(N)c23)ccc1NC(=O)c1cc2ccccc2n1C [A-770041]; settings: top dose 5.12 µM; top dose inferred
Method: as §1

[3] = compound: NC(=O)c1ccc(N(C(N)=O)c2c(F)cccc2F)nc1-c1ccc(F)cc1F [VX-702]; settings: top dose 2 µM; top dose inferred
Method: as §1

[4] = compound: O=C(c1cc(Cc2n[nH]c(=O)c3ccccc23)ccc1F)N1CCN(C(=O)C2CC2)CC1 [Olaparib]
Method: as §1

[5] = compound: O=C1NC(=O)c2c1c(-c1ccccc1Cl)cc1[nH]c3ccc(O)cc3c21 [Wee1 inhibitor 681640]; settings: top dose 2 µM; top dose inferred
Method: as §1

[6] = compound: CCNc1cc(NC2CCC(O)CC2)nc(Nc2ccc3c(ccn3Cc3ccccc3)c2)n1 [CGP-082996 (CINK4)]; settings: top dose 5.12 µM; top dose inferred
Method: as §1

[7] = compound: Cc1cc(N2CCOCC2)cc2[nH]c(-c3c(NC[C@@H](O)c4cccc(Cl)c4)cc[nH]c3=O)nc12 [BMS-536924]
Method: as §1

[8] = compound: Cc1cccc(-c2[nH]c(C(C)(C)C)nc2-c2ccc3nccnc3c2)n1 [SB-525334]; settings: top dose 20 µM; top dose inferred
Method: as §1

[9] = compound: COc1cc(N2CCN(C)CC2)ccc1Nc1ncc2c(n1)N(C)c1ccccc1C(=O)N2C [XMD8-85]; settings: top dose 8 µM; top dose inferred
Method: as §1

[10] = compound: Cc1ccc(-n2nc(C(C)(C)C)cc2NC(=O)Nc2ccc(OCCN3CCOCC3)c3ccccc23)cc1 [BIRB 0796]; settings: top dose 10 µM; top dose inferred
Method: as §1

[11] = compound: CC(C)=CC[C@@H](O)C1=CC(=O)c2c(O)ccc(O)c2C1=O [Shikonin]; settings: top dose 16 µM; top dose inferred
Method: as §1

[12] = top dose 5 µM, screen: GDSC drug entry 1017, top dose inferred
[13] = top dose 10 µM, screen: GDSC drug entry 1495
[14] = top dose 4 µM, screen: GDSC drug entry 1091, top dose inferred
[15] = top dose 5.12 µM, screen: GDSC drug entry 62

Row | Cell Line | AUC [1] | IC50 [1] [µM] | AUC [2] | IC50 [2] [µM] | AUC [3] | IC50 [3] [µM] | AUC [4, 12] | IC50 [4, 12] [µM] | AUC [4, 13] | IC50 [4, 13] [µM] | AUC [5] | IC50 [5] [µM] | AUC [6] | IC50 [6] [µM] | AUC [7, 14] | IC50 [7, 14] [µM] | AUC [7, 15] | IC50 [7, 15] [µM] | AUC [8] | IC50 [8] [µM] | AUC [9] | IC50 [9] [µM] | AUC [10] | IC50 [10] [µM] | AUC [11] | IC50 [11] [µM]
1 | SIMA (neuroblastoma, adherent) | 0.795 | 5.34 | 0.876 | > 5.12 | 0.985 | > 2 | 0.985 | > 5 | 0.947 | > 10 | 0.985 | > 2 | 0.939 | > 5.12 | 0.838 | 3.24 | 0.922 | > 5.12 | 0.841 | 16.6 | 0.978 | > 8 | 0.895 | > 10 | 0.684 | 3.51
2 | SJSA-1 (bone, adherent) | 0.854 | 9.57 | 0.945 | > 5.12 | 0.956 | > 2 | 0.984 | > 5 | 0.956 | > 10 | 0.916 | > 2 | 0.966 | > 5.12 | 0.957 | > 4 | 0.578 | 0.537 | 0.955 | > 20 | 0.834 | 6.17 | 0.896 | > 10 | 0.673 | 3.25
3 | SK-LMS-1 (soft tissue, adherent) | 0.715 | 2.45 | 0.883 | 5.01 | 0.961 | > 2 | 0.976 | > 5 | 0.921 | > 10 | 0.916 | > 2 | 0.968 | > 5.12 | 0.888 | > 4 | 0.841 | 3.3 | 0.894 | > 20 | 0.917 | > 8 | 0.818 | 5.28 | 0.191 | 0.127
4 | SK-MEL-1 (melanoma, suspension) | 0.91 | > 10 | 0.964 | > 5.12 | 0.993 | > 2 | 0.993 | > 5 | 0.992 | > 10 | 0.993 | > 2 | 0.948 | > 5.12 | 0.993 | > 4 | 0.948 | > 5.12 | 0.982 | > 20 | 0.969 | > 8 | 0.993 | > 10 | 0.754 | 4.74
5 | SK-MEL-2 (melanoma, adherent) | 0.617 | 1.33 | 0.972 | > 5.12 | 0.984 | > 2 | 0.982 | > 5 | 0.946 | > 10 | 0.959 | > 2 | 0.98 | > 5.12 | 0.91 | > 4 | 0.912 | > 5.12 | 0.985 | > 20 | 0.983 | > 8 | 0.901 | > 10 | 0.648 | 2.61
6 | SK-MM-2 (myeloma, suspension) | 0.807 | 5.41 | 0.969 | > 5.12 | 0.986 | > 2 | 0.987 | > 5 | 0.983 | > 10 | 0.987 | > 2 | 0.974 | > 5.12 | 0.735 | 1.21 | 0.613 | 0.665 | 0.744 | 6.47 | 0.755 | 2.82 | 0.987 | > 10 | 0.379 | 0.458
7 | SK-PN-DW (Ewing sarcoma, adherent) | 0.732 | 2.94 | 0.986 | > 5.12 | 0.9 | > 2 | 0.872 | > 5 | 0.942 | > 10 | 0.949 | > 2 | 0.983 | > 5.12 | 0.882 | > 4 | 0.779 | 2.17 | 0.931 | > 20 | 0.913 | > 8 | 0.979 | > 10 | 0.221 | 0.147
8 | SLVL (B-cell lymphoma, suspension) | 0.836 | 7.22 | 0.772 | 2.1 | 0.972 | > 2 | 0.977 | > 5 | 0.966 | > 10 | 0.974 | > 2 | 0.961 | > 5.12 | 0.942 | > 4 | 0.894 | > 5.12 | 0.874 | > 20 | 0.864 | 7.66 | 0.981 | > 10 | 0.409 | 0.554
9 | SNB75 (glioma, adherent) | 0.811 | 8.68 | 0.524 | 0.383 | 0.979 | > 2 | 0.977 | > 5 | 0.959 | > 10 | 0.973 | > 2 | 0.861 | > 5.12 | 0.953 | > 4 | 0.724 | 1.89 | 0.975 | > 20 | 0.795 | 5.85 | 0.967 | > 10 | 0.516 | 1.13
10 | SR (lymphoid neoplasm, suspension) | 0.236 | 0.118 | 0.863 | 3.71 | 0.974 | > 2 | 0.952 | > 5 | 0.954 | > 10 | 0.859 | 1.4 | 0.871 | 4 | 0.826 | 2.1 | 0.801 | 2.21 | 0.973 | > 20 | 0.859 | 5.6 | 0.987 | > 10 | 0.194 | 0.139

The IC50 comes from the fitted curve, where viability falls to half of the control; a fit beyond the top or the lowest dose is shown as a bound at that dose. For AUC the same curve is integrated over the 256-fold range of doses and scaled to a fraction: 1 means no effect, lower means more sensitive. A top dose marked as inferred was calculated from the reported fits. For some assays here: An entry number marks a drug with two screens in the source, which often give different values.
